# Experimental data published in PubChem BioAssay AID1030 (National Center for Advancing Translational Sciences (NCATS), 2008).
# “And” between values parts separate entries of the source, which are not always exact repeats. Equal entries are not always repeated. Hit rate of the full screen: of about 220,000 compounds, about 16,000 (7.3%) were called active. The shares of active, inactive and inconclusive entries below differ from those in the screen. Calls come from the whole dose curve; as a rule, active = well fitted inhibition curve with a large enough effect (not every such curve was filed as active); inconclusive = small, poorly fitted or top-dose-only effect, or another doubt; inactive = no such curve, though single readings can be large or run the other way. Potencies of inconclusive entries are doubtful fits and often do not repeat.
# Molecular target: Aldehyde dehydrogenase 1A1 (Homo sapiens) (UniProt P00352)
# Experiment: qHTS Assay for Inhibitors of Aldehyde Dehydrogenase 1 (ALDH1A1);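 for activity, negative = inhibition: plate controls were no enzyme wells and a reference inhibitor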
# Settings: Purified ALDH1A1, NADH fluorescence, propionaldehyde substrate; series mostly up to 75.3 µM; activity, negative = inhibition: at the top concentration
# Potency is the fitted concentration of half-maximal effect; tags give direction and shape of the fitted curve.
# Sequence of UniProt P00352 (P00352 whole entry, looked up): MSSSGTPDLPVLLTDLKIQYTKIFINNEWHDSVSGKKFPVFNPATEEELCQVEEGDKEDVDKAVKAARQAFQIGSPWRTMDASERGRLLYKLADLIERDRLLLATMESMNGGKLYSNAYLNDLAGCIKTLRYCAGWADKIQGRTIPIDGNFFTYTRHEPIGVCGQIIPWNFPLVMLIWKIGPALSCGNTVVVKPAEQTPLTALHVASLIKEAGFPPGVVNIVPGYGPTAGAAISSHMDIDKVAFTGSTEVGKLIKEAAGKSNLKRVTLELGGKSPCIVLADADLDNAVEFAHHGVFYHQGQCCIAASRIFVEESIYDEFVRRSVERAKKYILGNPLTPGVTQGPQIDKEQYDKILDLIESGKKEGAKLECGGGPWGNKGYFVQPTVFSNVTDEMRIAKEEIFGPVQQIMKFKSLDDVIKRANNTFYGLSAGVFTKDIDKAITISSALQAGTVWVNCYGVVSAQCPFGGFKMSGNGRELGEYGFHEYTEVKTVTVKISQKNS
Compound,Potency,"activity, negative = inhibition"
CC(=O)c1ccc(OC(C)C)c(Cc2c(O)[nH]c(=S)[nH]c2=O)c1,active: 17.8 µM,
Cc1c2ccncc2c(C)c2c1[nH]c1ccccc12,"inconclusive: 7.08 µM [inhibitor, partial curve] and inconclusive: 35.5 µM [inhibitor, single point] and inconclusive: 15.8 µM [inhibitor, partial curve]",
CCn1c(O)c(/C=N/NC(=O)c2ccncc2)c(=O)[nH]c1=S,"inconclusive: 20 µM [inhibitor, partial curve]",
Nc1c2c(nc3sc4c(c13)CCCCC4)CCCC2,"inconclusive: 39.8 µM [inhibitor, partial curve, poor fit]",
CC(C)NP(=O)(NC(C)C)OP(=O)(NC(C)C)NC(C)C,"inconclusive: 39.8 µM [inhibitor, single point]",
C=Cn1ccnc1P(O)(=S)c1nc(C)c(CCOC(C)=O)s1 (stereo not given),"inconclusive: 39.8 µM [inhibitor, single point]",
Oc1c(Cl)cc(Cl)cc1CN1CCN(Cc2ccccc2)CC1,"inconclusive: 25.1 µM [inhibitor, single point]",
CC1CC(C)C(=O)[C@H](C(O)CC2CC(=O)NC(=O)C2)C1 (stereo not given in full),,inactive: 3.57%
Cc1nc2ccccc2c(=O)n1-c1cc(F)ccc1F,,inactive: -7.58%
C=CCn1c(O)c(C(CC)=Nc2ccc(N(CC)CC)cc2)c(=O)[nH]c1=O,"inconclusive: 1.26 µM [inhibitor, full curve]",
Nc1c(C(=O)OCc2ccccc2)c2nc3ccccc3nc2n1Cc1cccs1,"inconclusive: 28.2 µM [inhibitor, partial curve]",
O=C1NC(=O)N(c2ccccc2)C(=O)/C1=C/c1ccc([N+](=O)[O-])s1,active: 22.4 µM,
COC(=O)C(O)(c1ccc(NC(=S)NC(=O)c2ccccc2)cc1)C(F)(F)F (stereo not given),active: 25.1 µM,
COc1cc(/C=C2\C(=O)NC(=O)N(c3ccccc3)C2=O)c([N+](=O)[O-])cc1OC,"inconclusive: 7.08 µM [inhibitor, single point]",
O=C(c1ccc(CNS(=O)(=O)c2ccccc2)cc1)N1CCC2(CC1)OCCO2,active: 8.91 µM,
Cc1cc2ccccc2c(=O)n1CC(=O)NCC(=O)N1CCC2(CC1)OCCO2,"inconclusive: 35.5 µM [inhibitor, single point]",
Cc1[nH]ccc2c1[nH]c1cc(=O)ccc12,"inconclusive: 10 µM [inhibitor, partial curve] and inconclusive: 31.6 µM [inhibitor, partial curve]",
COc1ccc(OCC#CCN2CCCCCC2)cc1,active: 22.4 µM,
CC(=O)Oc1ccccc1C(=O)Nc1ncc([N+](=O)[O-])s1,"inconclusive: 28.2 µM [inhibitor, single point]",
C[N+]1(C)CCC(OC(=O)C(c2ccccc2)c2ccccc2)CC1,inactive,
C=C(C)CSc1nnc([C@@H](N)Cc2c[nH]c3ccccc23)o1,active: 15.8 µM,
CCOC(=O)C(NC(=O)CC)(Nc1ccc(C(O)(C(=O)OCC)C(F)(F)F)cc1C)C(F)(F)F (stereo not given),,inactive: 10.8%
O=C(CN1CCN(c2ccccc2F)CC1)Nc1cccnc1Cl,"inconclusive: 22.4 µM [inhibitor, single point]",

Compound,Potency,"activity, negative = inhibition"
O=S(=O)(O)c1cc(N=C=S)ccc1/C=C/c1ccc(N=C=S)cc1S(=O)(=O)O,"inconclusive: 25.1 µM [inhibitor, partial curve]",
CC1(C)CC(CCNCc2ccc3c(c2)OCO3)(Cc2ccccc2)CCO1 (stereo not given),"inconclusive: 35.5 µM [inhibitor, single point]",
CN1C(=O)C(=Cc2ccc(N3CCOCC3)c([N+](=O)[O-])c2)C(=O)N(C)C1=O,"inconclusive: 35.5 µM [inhibitor, partial curve]",
C=CCn1c(O)c(/C=N/N2CCOCC2)c(=O)[nH]c1=S,"inconclusive: 22.4 µM [inhibitor, single point]",
CSC(=S)NCc1c[nH]c2ccccc12,,inactive: -3.22%
O=C(O)Cc1ccc([N+](=O)[O-])cc1[N+](=O)[O-],,inactive: -5.67% [at 13.5 µM]
C=CCn1c(O)c(C(C)=Nc2ccc(C(=O)OCC)cc2)c(=O)[nH]c1=O,active: 31.6 µM,
C=Cn1ccnc1P(=S)(c1nccn1C=C)c1nccn1C=C,,inactive: -23.4%
CC(=O)Oc1c2c(c(CC=C(C)C)c3c1C(=O)C1=CC4CC5C(C)(C)OC(C/C=C(\C)C(=O)O)(C4=O)[C@]15O3)OC(C)(CCC=C(C)C)C=C2 (stereo not given in full),"inconclusive: 39.8 µM [inhibitor, single point]",
Cc1ccccc1-n1c(-c2ccc([N+](=O)[O-])cc2)nc2ccccc2c1=O,active: 7.94 µM,
CC(=O)NBr,,inactive: 5.46%
COc1ccccc1[N+](=O)[O-],active: 25.1 µM,
COc1ccccc1CN1CCN(C(=O)COc2ccccc2)CC1,"inconclusive: 39.8 µM [inhibitor, single point]",
O=C(C(=O)N1CCc2ccccc2C1)c1cn(CC(=O)N2CCCCC2)c2ccccc12,"inconclusive: 17.8 µM [inhibitor, partial curve]",
COc1ccccc1CN1CC[C@@]2(CCCN(C(=O)Oc3ccccc3)C2)C1,"inconclusive: 44.7 µM [inhibitor, single point]",
C/C=C1\C[N@@+]2(C)CC[C@@]34C(=C(C=O)[C@H]1C[C@H]32)Nc1ccccc14,"inconclusive: 17.8 µM [inhibitor, single point]",
O=C1NC(=O)N(Cc2cccs2)C(=O)/C1=C/c1ccc(N2CCOCC2)cc1,active: 7.08 µM,
COC(=O)CN1CN(c2ccccc2)C2(CCN(Cc3ccc4ccccc4c3)CC2)C1=O,,inactive: -13.3%
CC(C)(O)C1C2OC(=O)C1[C@]1(O)CC3O[C@@]34C(=O)OC2[C@@]14C (stereo not given in full),,inactive: 10.6%
CC(C)(C)OC(=O)N1CC[C@H]1COc1cnc[c]([Sn]([CH3])([CH3])[CH3])c1,,inactive: 3.25% [at 13.5 µM]
CN1CC[C@@]2(C)c3cc(O)ccc3N(C)[C@@H]12,,inactive: -3.88%
CCCCCCCSc1cc(OC)c(CCN(C)C)cc1OC,,inactive: 2.23%
